Measured values reported in US9744222B2, “Peptide for vaccine” (Circassia Limited, priority 2007, dated 2017).
Part of at least one peptide drawing is inferred or uncertain, most often the ends. Some compounds share one wording; it may come from a single statement. Some entries share one result that the patent states for a list of compounds. Where a SMILES comes first, the peptide text is derived from it.

Columns and labels:
PBMC's = assay: Cytokine release assay (IL-13, IFN-gamma); type: cell-based, human; settings: for Percentage of individuals with an IL-13 or IFN-gamma response greater than 100 pg/ml: PBMC of house dust mite allergic individuals, 5 days stimulation; for Ranking of peptides by percentage of responders (in words): IL-13 or IFN-gamma response greater than 100 pg/ml
Procedure: Cytokine secretion profiles from PBMC's are analysed in response to the peptide stimulation using the peptides from Example 3.
Thus, an individual was considered to have responded to a peptide if cells from that individual yielded a response greater than 100 pg/ml for either […] or IFN-gamma.

[1] = Precipitation in aqueous solution of the binding assay; type: physicochemical
Source text: This is a characteristic of promiscuous HLA-DRB1* binders.

[2] = lowest concentration at which an insoluble white precipitate is seen in the aqueous solution of the binding assay
[3] = lowest concentration at which an insoluble white precipitate is seen, value in brackets

Compound | Percentage of individuals with an IL-13 or IFN-gamma response greater than 100 pg/ml (PBMC's) [%] | Precipitation in assay [1, 2] | Precipitation in assay [1, 3] | Ranking of peptides by percentage of responders (in words) (PBMC's)
CC(C)C[C@H](NC(=O)[C@H](CCC(N)=O)NC(=O)[C@H](Cc1ccccc1)NC(=O)[C@@H]1CCCN1C(=O)[C@@H](N)CCCCN)C(=O)N[C@@H](CCC(=O)O)C(=O)N[C@@H](C)C(=O)N[C@H](C(=O)N[C@@H](Cc1ccccc1)C(=O)N[C@@H](CCC(=O)O)C(=O)N[C@@H](C)C(=O)N[C@@H](CC(N)=O)C(=O)N[C@@H](CCC(N)=O)C(=O)N[C@@H](CC(N)=O)C(=O)N[C@H](C(=O)N[C@@H](CCCCN)C(=O)O)[C@@H](C)O)C(C)C [HDM21A] (H-KPFQLEAVFEANQNTK-OH; N-terminus and C-terminus assumed) | > 25 | 50000 µM | (9.3 mg/ml) | 
CC[C@H](C)[C@H](N)C(=O)N[C@@H](CC(=O)O)C(=O)N[C@@H](CC(C)C)C(=O)N[C@@H](CCCNC(=N)N)C(=O)N[C@@H](CCC(N)=O)C(=O)N[C@@H](CCSC)C(=O)N[C@@H](CCCNC(=N)N)C(=O)N[C@H](C(=O)N[C@H](C(=O)N[C@H](C(=O)N1CCC[C@H]1C(=O)N[C@H](C(=O)N[C@@H](CCCNC(=N)N)C(=O)O)[C@@H](C)CC)[C@@H](C)O)C(C)C)[C@@H](C)O [HDM01] (H-IDLRQMRTVTPIR-OH; N-terminus and C-terminus assumed) | > 25 | None |  | 
CC[C@H](C)[C@H](NC(=O)[C@H](C)NC(=O)[C@@H](N)[C@@H](C)O)C(=O)N[C@@H](Cc1ccccc1)C(=O)N[C@@H](CCC(N)=O)C(=O)N[C@@H](CC(=O)O)C(=O)N[C@H](C(=O)N[C@H](C(=O)N[C@@H](CCCNC(=N)N)C(=O)N[C@@H](C)C(=O)N[C@@H](CCC(=O)O)C(=O)N[C@@H](CCSC)C(=O)N[C@H](C(=O)N[C@@H](CCCCN)C(=O)O)[C@@H](C)O)C(C)C)[C@@H](C)O [HDM48] (H-TAIFQDTVRAEMTK-OH; N-terminus and C-terminus assumed) | > 25 | 10000 µM | (1.6 mg/ml) | 
CC(C)C[C@H](NC(=O)[C@H](CC(=O)O)NC(=O)[C@H](CC(C)C)NC(=O)[C@H](CO)NC(=O)[C@H](CCC(N)=O)NC(=O)[C@H](CC(N)=O)NC(=O)[C@H](CCCNC(=N)N)NC(=O)[C@H](Cc1ccc(O)cc1)NC(=O)[C@H](C)NC(=O)[C@H](CC(C)C)NC(=O)[C@H](Cc1ccc(O)cc1)NC(=O)[C@H](C)NC(=O)[C@@H](N)CO)C(=O)N[C@@H](C)C(=O)O [HDM204] (H-SAYLAYRNQSLDLA-OH; N-terminus and C-terminus assumed) | > 25 |  |  | 
CSCC[C@H](NC(=O)[C@H](CCC(N)=O)NC(=O)[C@H](CCCCN)NC(=O)[C@H](CC(C)C)NC(=O)CNC(=O)[C@@H](N)CCCNC(=N)N)C(=O)N[C@@H](CCCCN)C(=O)N[C@@H](CCCNC(=N)N)C(=O)N[C@H](C(=O)NCC(=O)N[C@@H](CC(=O)O)C(=O)N[C@@H](C)C(=O)N[C@@H](CC(N)=O)C(=O)N[C@H](C(=O)O)C(C)C)C(C)C [HDM35A] (H-RGLKQMKRVGDANV-OH; N-terminus and C-terminus assumed) | > 25 |  |  | 
CC[C@H](C)[C@H](NC(=O)[C@H](CCCCN)NC(=O)[C@H](CC(N)=O)NC(=O)[C@@H](NC(=O)[C@H](CC(N)=O)NC(=O)[C@@H]1CCCN1)C(C)C)C(=O)N[C@@H](CCCNC(=N)N)C(=O)N[C@@H](CCC(=O)O)C(=O)N[C@@H](C)C(=O)N[C@@H](CC(C)C)C(=O)N[C@@H](C)C(=O)N[C@@H](CCC(N)=O)C(=O)N[C@H](C(=O)O)[C@@H](C)O [HDM07] (H-PNVNKIREALAQT-OH; N-terminus and C-terminus assumed) | > 25 | None |  | 
CC[C@H](C)[C@H](NC(=O)[C@H](CCCCN)NC(=O)[C@H](CC(N)=O)NC(=O)[C@@H](NC(=O)[C@H](CC(N)=O)NC(=O)[C@@H]1CCCN1C(=O)[C@@H]1CCCN1C(=O)[C@H](Cc1ccc(O)cc1)NC(=O)[C@@H](NC(=O)[C@H](CCC(N)=O)NC(=O)[C@H](CS)NC(=O)[C@H](Cc1ccc(O)cc1)NC(=O)[C@@H](N)CC(N)=O)[C@@H](C)CC)C(C)C)C(=O)N[C@@H](CCCNC(=N)N)C(=O)N[C@@H](CCC(=O)O)C(=O)N[C@@H](C)C(=O)O [HDM101] (H-NYCQIYPPNVNKIREA-OH; N-terminus and C-terminus assumed) |  |  |  | next most potent peptides
CC[C@H](C)[C@H](NC(=O)[C@H](CCSC)NC(=O)[C@H](CCSC)NC(=O)[C@H](CC(C)C)NC(=O)[C@H](CC(=O)O)NC(=O)[C@@H](NC(=O)[C@H](CC(N)=O)NC(=O)[C@H](C)NC(=O)[C@H](C)NC(=O)[C@H](Cc1ccccc1)NC(=O)[C@H](Cc1ccc(O)cc1)NC(=O)CNC(=O)[C@H](Cc1ccc(O)cc1)NC(=O)CNC(=O)[C@H](CC(N)=O)NC(=O)[C@@H](N)CC(=O)O)[C@@H](C)CC)C(=O)N[C@@H](CCC(=O)O)C(=O)N[C@@H](CCC(=O)O)C(=O)O [HDM206] (H-DNGYGYFAANIDLMMIEE-OH; N-terminus and C-terminus assumed) | > 25 |  |  | 
CC[C@H](C)[C@H](N)C(=O)N[C@@H](CC(=O)O)C(=O)N[C@@H](CC(C)C)C(=O)N[C@@H](CCCNC(=N)N)C(=O)N[C@@H](CCC(N)=O)C(=O)N[C@@H](CCSC)C(=O)N[C@@H](CCCNC(=N)N)C(=O)N[C@H](C(=O)N[C@H](C(=O)N[C@H](C(=O)N1CCC[C@H]1C(=O)N[C@H](C(=O)N[C@@H](CCCNC(=N)N)C(=O)N[C@@H](CCSC)C(=O)N[C@@H](CCC(N)=O)C(=O)NCC(=O)NCC(=O)N[C@@H](CO)C(=O)NCC(=O)O)[C@@H](C)CC)[C@@H](C)O)C(C)C)[C@@H](C)O [HDM01A] (H-IDLRQMRTVTPIRMQGGSG-OH; N-terminus and C-terminus assumed) | > 25 |  |  | 
CC[C@H](C)[C@H](NC(=O)[C@@H]1CCCN1C(=O)[C@@H](NC(=O)[C@@H](NC(=O)[C@@H](NC(=O)[C@H](CCCNC(=N)N)NC(=O)[C@H](CCSC)NC(=O)[C@H](CCC(N)=O)NC(=O)[C@H](CCCNC(=N)N)NC(=O)[C@H](CC(C)C)NC(=O)[C@@H](N)CC(=O)O)[C@@H](C)O)C(C)C)[C@@H](C)O)C(=O)N[C@@H](CCCNC(=N)N)C(=O)N[C@@H](CCSC)C(=O)N[C@@H](CCC(N)=O)C(=O)NCC(=O)NCC(=O)N[C@@H](CO)C(=O)NCC(=O)N[C@@H](CO)C(=O)O [HDM203B] (H-DLRQMRTVTPIRMQGGSGS-OH; N-terminus and C-terminus assumed) |  |  |  | top five peptides
CC[C@H](C)[C@H](NC(=O)[C@H](C)NC(=O)[C@H](CO)NC(=O)[C@H](C)NC(=O)[C@H](CC(C)C)NC(=O)[C@@H](NC(=O)CN)C(C)C)C(=O)N[C@@H](C)C(=O)N[C@H](C(=O)N[C@@H](Cc1c[nH]cn1)C(=O)N[C@@H](C)C(=O)N[C@@H](CCCCN)C(=O)N[C@H](C(=O)N[C@@H](CCCNC(=N)N)C(=O)O)[C@@H](C)CC)[C@@H](C)O [HDM26B] (H-GVLASAIATHAKIR-OH; N-terminus and C-terminus assumed) | > 25 |  |  | 
CC[C@H](C)[C@H](NC(=O)[C@H](CCC(=O)O)NC(=O)[C@H](Cc1c[nH]cn1)NC(=O)[C@H](CC(N)=O)NC(=O)[C@H](C)NC(=O)[C@H](CO)NC(=O)[C@H](CC(=O)O)NC(=O)[C@H](CCCCN)NC(=O)[C@@H](NC(=O)[C@H](CC(=O)O)NC(=O)[C@@H](NC(=O)[C@H](CCC(N)=O)NC(=O)[C@@H](N)CC(=O)O)C(C)C)C(C)C)C(=O)N[C@@H](CCCCN)C(=O)N[C@@H](CCCCN)C(=O)O [HDM19A] (H-DQVDVKDSANHEIKK-OH; N-terminus and C-terminus assumed) | > 25 |  |  | 
CC(C)C[C@H](NC(=O)[C@H](CCC(=O)O)NC(=O)[C@H](CCC(N)=O)NC(=O)[C@@H](N)CCC(=O)O)C(=O)N[C@H](C(=O)N[C@@H](CC(=O)O)C(=O)N[C@@H](CO)C(=O)N[C@@H](C)C(=O)N[C@@H](CO)C(=O)N[C@@H](CCC(N)=O)C(=O)N[C@@H](Cc1c[nH]cn1)C(=O)NCC(=O)O)C(C)C [HDM03V] (H-EQELVDSASQHG-OH; N-terminus and C-terminus assumed) |  |  |  | at least equivalent to HDM03D
GLEVDVPGIDPNASH [HDM23C] | > 25 |  |  | 
CC[C@H](C)[C@H](NC(=O)[C@H](CC(N)=O)NC(=O)[C@H](CCCNC(=N)N)NC(=O)[C@H](CCSC)NC(=O)[C@H](C)NC(=O)[C@H](CC(C)C)NC(=O)[C@H](CCC(=O)O)NC(=O)CNC(=O)[C@H](CCCCN)NC(=O)[C@H](Cc1ccccc1)NC(=O)[C@H](CC(=O)O)NC(=O)[C@@H](N)C(C)C)C(=O)N[C@@H](CCC(=O)O)C(=O)N[C@@H](C)C(=O)N[C@@H](CCCNC(=N)N)C(=O)O [HDM51A] (H-VDFKGELAMRNIEAR-OH; N-terminus and C-terminus assumed) | > 25 | None |  | 
